Test results published in the antibiotic and cytotoxicity screens of Wong et al. (2023).
This is one part of the list.

What was measured:
HSkMC = human skeletal muscle cells; assay: cytotoxicity call (relative viability < 0.9); conditions: 10 µM
HepG2 = assay: cytotoxicity call (relative viability < 0.9); conditions: 10 µM
S. aureus RN4220 = assay: growth inhibition call (relative growth <= 0.2); conditions: 50 µM

C#Cc1nccnc1OC
inactive: cytotoxicity call (HSkMC) | cytotoxicity call (HepG2) | growth inhibition call (S. aureus RN4220)

CC(C)(C)[S@@](=O)N1Cc2cc(C(=O)NCCN3CCCCC3)nc(-c3cccc(-c4cccc(C#N)c4)c3)c2[C@H]1CCO
inactive: cytotoxicity call (HSkMC) | cytotoxicity call (HepG2) | growth inhibition call (S. aureus RN4220)

C[C@@H]1CN([C@@H](C)CO)C(=O)c2cccc(NC(=O)C3CCOCC3)c2O[C@@H]1CN(C)S(=O)(=O)c1cccs1
inactive: cytotoxicity call (HSkMC) | cytotoxicity call (HepG2) | growth inhibition call (S. aureus RN4220)

C[C@@H]1CN([C@@H](C)CO)C(=O)Cc2cc(NS(C)(=O)=O)ccc2O[C@@H]1CN(C)S(C)(=O)=O
inactive: cytotoxicity call (HSkMC) | cytotoxicity call (HepG2) | growth inhibition call (S. aureus RN4220)

C[C@@H]1CN([C@H](C)CO)S(=O)(=O)c2ccc(C#Cc3ccccc3)cc2O[C@@H]1CN(C)S(=O)(=O)c1ccccc1F
inactive: cytotoxicity call (HSkMC) | cytotoxicity call (HepG2) | growth inhibition call (S. aureus RN4220)

COc1ccc(-c2cnc3c(c2)C(=O)N([C@@H](C)CO)C[C@@H](C)[C@@H](CN(C)C(=O)Cc2ccncc2)O3)cc1
inactive: cytotoxicity call (HSkMC) | cytotoxicity call (HepG2) | growth inhibition call (S. aureus RN4220)

C=CC[C@]1(C(=O)NCCN2CCOCC2)COC(c2ccc(OCCCO)cc2)=N1
inactive: cytotoxicity call (HSkMC) | cytotoxicity call (HepG2) | growth inhibition call (S. aureus RN4220)

COc1ccccc1S(=O)(=O)N[C@H]1CC[C@H](CCNC(=O)C2CC2)O[C@H]1CO
inactive: cytotoxicity call (HSkMC) | cytotoxicity call (HepG2) | growth inhibition call (S. aureus RN4220)

COc1ccc(S(=O)(=O)Nc2ccc3c(c2)C(=O)N([C@@H](C)CO)C[C@H](C)[C@H](CN(C)C(=O)NC(C)C)O3)cc1
inactive: cytotoxicity call (HSkMC) | cytotoxicity call (HepG2) | growth inhibition call (S. aureus RN4220)
